# Data taken from PubChem BioAssay (NCI).
#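 How tested: cells in 96-well plates exposed to compound for 48 hours at five concentrations. GI50 = concentration required for 50% inhibition of growth. TGI: total growth inhibition.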
# System: NCI-H322M lung
# Assay: DTP human tumour cell line panel, 48 h
SMILES,GI50,TGI
C/C(=N\NC(=O)CSc1nc2sc3c(c2c(=O)n1-c1ccccc1)CCC(C)C3)c1ccc(Cl)cc1 (stereo unspecified),2.69 µM,> 100 µM
CCOC(=O)c1c(NCC(=O)Nc2ccc(Br)cc2)sc2c1CCCC2,1.67 µM,3.19 µM
COc1cc(OC)c(/C=C/S(=O)(=O)Cc2ccc(OC)c(NCC(=O)NO)c2)c(OC)c1,0.0647 µM,> 100 µM
